ChEMBL document CHEMBL4888484, “Replenishing the malaria drug discovery pipeline: Screening and hit evaluation of the MMV Hit Generation Library 1 (HGL1) against asexual blood stage Plasmodium falciparum ,using a nano luciferase reporter read-out” (2022)
The whole screen tested about 4,800 compounds, of which about 420 (8.8%) showed an effect of 50% or more. The list shows a part of the results.

System: Plasmodium falciparum
Assay: Confirmatory screen in NF54 nanoGlo assay, in single point, at 2uM, 72h
Assay type: functional, Erythrocyte
Conditions: timepoint 72 hour

Point of comparison: CCN1CCN(c2nc(O)c3c(n2)NC(=O)C[C@H]3c2cccc(F)c2)CC1, “% Inhibition” value -11%. Against it:
- N#Cc1cc(S(=O)(=O)NCCN(C2CC2)S(=O)(=O)c2ccc(Cl)c(C#N)c2)ccc1Cl — higher, 75%
- O=C1[C@H](c2cccnc2)N(CCCc2ccccc2)C(=O)CN1c1ccccc1 — higher, -8%
- CCN1c2cc(C(=O)Nc3ccc(OC)cc3OC)ccc2C(=O)N2CCCC[C@H]21 — higher, 8%
- Cc1cc(NC(=O)NC(C)C)c2[nH]c(C(=O)N3CCOCC3)c(-c3ccccc3)c2c1 — higher, 3%
- Cc1cc(=O)n2ncc(C(=O)Nc3ccc(F)cc3F)c2[nH]1 — higher, 7%
- CC(C)CCNC(=O)c1cnn2c3c(cnc12)CCCC3 — higher, -6%
- CC1(C)C[C@@H](NC(=O)COc2ccc(CO)cc2)CCO1 — higher, -1%
- Fc1cc(Cl)cnc1N1CCC2(CCOCC2)C1 — higher, -2%
- C#CC[C@H](OC(=O)c1cccn1C)C1CC1 — lower, -13%
- C[C@H](C(=O)Nc1nc2c(ccc3ccccc32)s1)C1CCOCC1 — higher, -10%
- NC1(c2noc([C@@H]3CCCO3)n2)CCCCCC1 — higher, 2%
- COc1ccc(C(=O)N2C[C@@H]3C[C@H]2C[C@@H]3NC(=O)c2ccccc2)cc1F — higher, 4%
- CC1(C(=O)NCc2ccc(F)cc2F)CCN(C(=O)CC2CCCC2)CC1 — higher, 1%
- CC(C)(C)[C@@H](O)CNC(=O)c1c(O)cccc1F — higher, -10%
- CN(C)c1cccc(CNc2ccc(C(F)(F)F)nn2)n1 — higher, 1%
- O=S(=O)(c1ccccc1C(F)(F)F)N1CC[C@]2(CCN(c3cccnc3)C2)C1 — higher, -2%
- CCCC(=O)Nc1cccc(C(=O)O)c1C — higher, -5%
- CCCC[C@H](CC)C(=O)Nc1ccccc1C — higher, 7%
- CC(C)N(C)CC1CCN(C(=O)c2cc(-c3ccccc3)c(N3CCOCC3)s2)CC1 — higher, -4%
- CC1(C)NC(=O)CC[C@@H]1NC1CC(c2cccc(F)c2)C1 (stereo not given in full) — higher, 5%
- Cc1nn(C)cc1-c1nn(-c2nc(C3CC3)cc(C(F)(F)F)n2)c(-c2cn(C)nc2C)c1C — higher, 16%
- CC1([C@@](O)(C#CC[N+]2(C)CCCCC2)c2ccccc2)CCCC1 — higher, 50%
- c1ccc(Cn2ncc3cc(-c4nc(C5CC5)no4)cnc32)cc1 — higher, 3%
- COc1ccc(CCNC(=O)CCCC(=O)Nc2cccnc2)cc1OC — higher, 3%
- Cc1ccccc1C(=O)NCc1nn(C2CCCC2)c2c1COCC2 — higher, -1%
- N#CC1(C(=O)NC(C2CC2)C2CC2)CCCC1 — lower, -14%
- Cc1ccnc(NC(=O)c2cc(C#N)oc2C)n1 — higher, -2%
- CC(C)(C)OC(=O)N(c1ccc(F)cc1)S(C)(=O)=O — higher, -7%
- O=C(Nc1cnccn1)c1cccnc1OCC(F)F — higher, -4%
- O=C(Nc1ccc(Cn2ccnc2)cc1)c1cc2ccccc2cc1OC(F)F — higher, -4%
- COc1ccc(S(=O)(=O)N2CCN(C(=O)N(C)C)[C@@H]2c2ccccc2)cc1 — higher, 0%
- O=C(Cn1c(=O)n(-c2cc(F)cc(F)c2)c(=O)c2sccc21)NCc1ccc(F)cc1F — higher, -4%
- COCc1cc(=O)n(CC(=O)NCc2ccccc2Cl)c(N2CCCC2)n1 — the same, -11%
- O=c1[nH]c2ccccc2nc1-c1cc(Br)ccc1NS(=O)(=O)c1cccc2nsnc12 — higher, 0%
- CC(C)NC(=O)Cn1ccnc1CCN1C(=O)c2ccccc2C1=O — higher, -3%
- CCCCN(CC)C(=O)[C@@H]1CCC(=O)N(CC(C)C)[C@H]1c1cccnc1 — lower, -15%
- C[C@H](NC(=O)N(Cc1ccccc1F)C1CCC1)c1cnn(C)c1 — higher, 1%
- Nc1ccc2c(NC3CCC(=O)NC3C3CC3)ncnc2n1 (stereo not given) — lower, -12%
- Cc1nn(C)c(C(=O)NCCCN2CCOCC2)c1Br — lower, -12%
- CCn1cc(Cl)c(C(=O)N2CCN(C(=O)c3ccco3)CC2)n1 — the same, -11%
- CC1(CO)CCCC1NCc1cnc(N2CCOCC2)nc1 (stereo not given) — higher, 2%
- CCCOc1cc(=O)c(C(=O)N2CCCC2)nn1-c1ccc(C)cc1 — higher, -3%
- Brc1cncnc1N1CCC[C@H](c2nnn[nH]2)C1 — lower, -15%
- C=CCC1(Nc2ccccc2)c2ccccc2-c2ccccc21 — higher, -5%
- Cc1ccc(S(=O)(=O)/N=[S@@](/c2ccccc2)c2ccccc2C)cc1 — higher, -5%
- COc1ccc(Nc2nnc(/C=C/c3ccccc3)c(=O)n2N)cc1 — higher, 10%
- Cn1ccc(C2=Nc3ccccc3NC(=O)C2)n1 — higher, -4%
- Cc1ccc(CNC(=O)[C@@H](C)C2CCOCC2)o1 — higher, -2%
- CCC(=O)N1CCc2sc(S(=O)(=O)N3CCN(c4cc(C)ccc4C)CC3)cc2C1 — higher, 36%
- CCNC(=O)C1Cc2ccc(OC)cc2N2CCN(c3ccc(OC)cc3)CC12 (stereo not given) — higher, 2%
- O=C(c1nc(C2CC2)ncc1Br)N1CCC[C@H]1C1CCOCC1 — higher, -1%
- Cc1cc(=O)n2ncc(C(=O)Nc3cc(F)ccc3C)c2[nH]1 — lower, -18%
- CCCn1nnnc1Cn1ncc2ccccc2c1=O — higher, 3%
- CO/N=C(\Nc1cc(C)ccc1C)c1nonc1N — higher, 6%
- Cc1cccc(S(=O)(=O)c2cnc(N3CCC(Cc4ccccc4)CC3)nc2N)c1 — lower, -17%
- Nc1nc(N2CCC3(CC2)OCCO3)ncc1C(=O)Nc1ccccc1 — the same, -11%
- COc1ccc([C@@H]2C(C#N)(C#N)C23C(=O)CC(C)(C)CC3=O)cc1 — higher, -9%
- Cc1ccc(-c2ccc(CN(CC(=O)NCC(=O)O)C(C)C)s2)cc1 — higher, -4%
- CC[n+]1c(/C=C/N(C)c2ccccc2)oc2ccc(-c3ccccc3)cc21 — higher, 89%
- C[C@H](NC(=O)c1ccco1)c1cc2c(cc1Br)OCCCO2 — higher, 26%
- Cc1nc(N2CCC(C)CC2)ncc1-c1cc(=O)[nH]c(NCc2ccccc2)n1 — lower, -15%
- Cc1cccc(NC(=O)Nc2cc(F)c3[nH]c(=O)ccc3c2)c1 — higher, -4%
- Cc1cc(-c2nc(C3(c4ccncc4)CCC3)no2)ccn1 — higher, -3%
- CC[C@H](C)NS(=O)(=O)c1cccc(N)c1 — higher, -4%
- Cc1ccc2c(c1)N(S(C)(=O)=O)CC[C@@H](C(=O)NC1CC1)O2 — higher, -10%
- Cc1ccc(NC(=O)Nc2cccc(-c3ccc(N4CCN(C)CC4)nn3)c2)cc1C — higher, 10%
- O=C1NC2(CCC2)C(=O)N1CCCCOc1ccccc1 — lower, -15%
- CCn1c(=O)c(N2CCC(C(=O)NCCCc3ccccc3)CC2)nc2cccnc21 — higher, -5%
- Cc1oc2ncn(CCN3CCCC3)c(=O)c2c1C(=O)Nc1ccc(C#N)cc1 — higher, 34%
